14 compounds from the supplement of paper PMC8047034 can be followed below.

Counter-ions that a name gives are not always drawn. Some of the results follow. Many values rest on one well or one pass, so single values are uncertain.

The assay concerns Ov4Carbo. Description: log2 surviving fraction (library drug vs vehicle, or drug + carboplatin vs carboplatin alone; relative to plate median); ovarian cancer lines: OVCAR4 is platinum-sensitive and Ov4Carbo platinum-resistant; higher = more cell survival. Conditions: library drug concentration 10 µM; 7 days; carboplatin co-treatment 5 µM.
On to `CC(=O)/N=c1/sc(S(N)(=O)=O)nn1C` [Methazolamide], for which the log2 surviving fraction came to 0.816. In the case of `C[C@@H]1CCN(C(=O)CC#N)C[C@@H]1N(C)c1ncnc2[nH]ccc12`, the log2 surviving fraction was -0.5.

Turning to `C[C@@H](O)[C@H]1C(=O)N2C(C(=O)[O-])=C(SC3Cn4cnc[n+]4C3)[C@H](C)[C@H]12` (some centres undefined) [Biapenem], the log2 surviving fraction was determined as 0.288. For `Clc1ccc(C(Cn2ccnc2)OCc2c(Cl)cccc2Cl)c(Cl)c1` (centres undefined) [Isoconazole nitrate (Travogen)] the value was -1.38.

Consider `COc1cc(NS(=O)(=O)c2ccc(N)cc2)nc(OC)n1` [Sulphadimethoxine], for which the log2 surviving fraction is -1.04. The same measure for `O=C(O)c1cc(/N=N/c2ccc(O)c(C(=O)O)c2)ccc1O` [olsalazine sodium]: 0.957; for `C=CCOc1ccccc1OCC(O)CNC(C)C` (centres undefined) [Oxprenolol HCl]: -0.351; for `COc1ccc(/C=C/C(=O)Nc2ccccc2C(=O)O)cc1OC`: 0.00794. The same measure for `C[C@H](NC(=O)Cc1cc(F)cc(F)c1)C(=O)N[C@H](C(=O)OC(C)(C)C)c1ccccc1`: -1.34; for `CN(C)[C@@H](CCOc1cccc2ccccc12)c1ccccc1` [Dapoxetine hydrochloride (Priligy)]: -1.05; for `CCN(CC)C(=S)SSC(=S)N(CC)CC` [Disulfiram (Antabuse)]: -7.56. For `Cc1nc2c([nH]1)-c1ccccc1N(C(=O)c1ccc(NC(=O)c3ccccc3-c3ccccc3)cc1)CC2` [Conivaptan HCl (Vaprisol)] the value was -1.72. Regarding `Cn1c(=O)c2c(ncn2CC(O)CO)n(C)c1=O` (centres undefined) [Dyphylline (Dilor)], the log2 surviving fraction is 0.411. The same measure for `COC(=O)/C=C/C(=O)OC` [Dimethyl Fumarate]: 0.455.
